Test results reported in PMC4336329 (PLoS ONE, 2015).
Out of some 310,000 compounds screened, about 14,000 (4.5%) showed an effect of 50% or more. Effects have a minus sign here. Some of the results follow.

Molecular target: human ether-à-go-go-related gene (hERG) potassium channel (human, UniProt Q12809)
Experiment: primary screen, population patch clamp on CHO cells stably expressing hERG
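Also: peak tail current of the secondary pulse compared with the same well before compound.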

Sequence of human ether-à-go-go-related gene (hERG) potassium channel (Q12809 whole entry, looked up): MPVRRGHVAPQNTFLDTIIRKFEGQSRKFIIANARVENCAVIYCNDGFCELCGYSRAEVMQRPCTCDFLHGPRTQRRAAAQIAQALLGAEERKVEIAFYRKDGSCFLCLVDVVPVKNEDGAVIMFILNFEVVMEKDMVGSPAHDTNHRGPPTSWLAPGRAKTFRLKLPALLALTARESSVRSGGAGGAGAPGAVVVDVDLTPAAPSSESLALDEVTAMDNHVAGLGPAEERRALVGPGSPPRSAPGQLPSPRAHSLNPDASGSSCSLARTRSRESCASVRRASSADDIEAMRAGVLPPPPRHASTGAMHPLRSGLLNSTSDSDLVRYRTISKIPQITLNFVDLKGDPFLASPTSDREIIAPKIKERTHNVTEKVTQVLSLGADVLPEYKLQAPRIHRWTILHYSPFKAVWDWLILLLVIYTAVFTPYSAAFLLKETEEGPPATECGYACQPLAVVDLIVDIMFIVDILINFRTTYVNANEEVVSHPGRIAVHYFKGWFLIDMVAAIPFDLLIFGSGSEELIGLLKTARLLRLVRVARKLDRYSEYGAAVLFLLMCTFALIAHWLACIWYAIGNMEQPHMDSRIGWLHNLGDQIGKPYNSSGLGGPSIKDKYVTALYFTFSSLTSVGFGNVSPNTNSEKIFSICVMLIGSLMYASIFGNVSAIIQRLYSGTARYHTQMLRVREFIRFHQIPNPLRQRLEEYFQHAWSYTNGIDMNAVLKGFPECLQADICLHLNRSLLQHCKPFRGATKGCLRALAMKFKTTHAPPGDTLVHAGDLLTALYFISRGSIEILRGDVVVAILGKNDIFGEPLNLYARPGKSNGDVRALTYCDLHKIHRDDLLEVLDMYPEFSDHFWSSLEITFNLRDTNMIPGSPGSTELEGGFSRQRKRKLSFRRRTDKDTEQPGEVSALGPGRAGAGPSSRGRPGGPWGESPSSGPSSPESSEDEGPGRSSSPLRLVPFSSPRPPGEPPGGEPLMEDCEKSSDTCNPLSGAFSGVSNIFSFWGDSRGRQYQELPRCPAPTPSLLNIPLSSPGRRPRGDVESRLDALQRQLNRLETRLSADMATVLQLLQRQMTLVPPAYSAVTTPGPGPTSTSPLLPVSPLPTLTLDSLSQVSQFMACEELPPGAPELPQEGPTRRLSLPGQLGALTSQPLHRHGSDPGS

Compound	hERG current change (%, negative = inhibition) at 10uM
CN(C)S(=O)(=O)c1cccc(NC(=O)COC(=O)c2cc(=O)[nH]c(=O)[nH]2)c1	12.3%
CCCCCn1nc(C(=O)OCC(=O)c2c(N)n(C)c(=O)n(C)c2=O)c2ccccc2c1=O	-11.5%
O=C(CSc1nnc(-c2ccccc2)n1-c1ccccc1)c1cccs1	-12.6%
O=C(/C=C/c1ccc2c(c1)OCO2)c1ccc(F)cc1	5.42%
COc1ccc(-n2nc(C(=O)NCC(=O)NCCN(C)C)c3ccccc3c2=O)cc1	10.7%
COc1cc(C)nc(N2CCC(C(=O)NCC3CCCO3)CC2)n1 (stereo not drawn)	4.78%
c1ccc2nc3c(cc2c1)CCCCC3	-18.5%
Cc1ccc(CCC(=O)Nc2ccc(C)c(C)c2)o1	-24.7%
COC(=O)CSC1=C(C#N)C(c2ccc(F)cc2)CC(=O)N1 (stereo not drawn)	4.55%
CCCCN1C(=O)NC(NC(C)=O)(C(F)(F)F)C1=O (stereo not drawn)	5.89%
CC1(C)Cc2c(cnn2-c2ccc(F)cc2)C(NC(=O)CCC(F)(F)F)C1 (stereo not drawn)	-42.8%
O=C(NC1CC1)c1cccc(Oc2ccccc2)c1	1.52%
O=C(CSc1nc(-c2ccco2)cc(C(F)(F)F)n1)Nc1ccc2c(c1)CCC2	-2.88%
CN1CCN(CCN2CCn3c2nc2ccccc23)CC1.Cl	-7.38%
CCCCCn1cnnc1SCC(=O)c1ccc2c(c1)OCO2	-27.9%
COc1cc2c(cc1NC(=O)COC(=O)[C@@H](NS(=O)(=O)c1ccccc1)C(C)C)oc1ccccc12	7.66%
COc1ccccc1CN1CCN(Cc2nc(Cc3ccccc3)no2)CC1	-36%
C=CCOC(=O)C1=C[C@H](c2cn(C(C)=O)c3ccccc23)C[C@H](OCCCCO)O1	-38.7%
COc1ccc(CNC(=O)C2CC(C)=C(C)CC2C(=O)O)cc1OC (stereo not drawn)	21.1%
COc1ccc2c(c1)C(=O)N1[C@H]3c4cc(C)ccc4OC[C@@H]3[C@H](c3ccccc3)[C@]1(C)C(=O)N2	5.97%
Cc1ccccc1NCC(=O)c1ccc(Br)cc1	0.178%
C=C(C)CNC(=S)NNC(=O)c1ccco1	17.6%

Compound	hERG current change (%, negative = inhibition) at 10uM
COc1cc2c(cc1OC)CN(C(=O)C(CCSC)NS(=O)(=O)c1ccc(C)cc1)CC2 (stereo not drawn)	10.7%
Cc1ccc(/C=C2\SC(=S)N(C3CCS(=O)(=O)C3)C2=O)o1 (stereo not drawn)	-4.91%
CN1CCN(C(=S)Nc2cccc(C(F)(F)F)c2)CC1	-0.365%
COc1cc(NC(=O)COC(=O)Cc2ccc(-c3ccccc3)cc2)cc(OC)c1	3.6%
CC(C)(C)OC(=O)N1CCC(NC(=O)c2nc[nH]c2C(=O)NCC(=O)OCc2ccccc2)CC1	-45.6%
N#CCc1ccc(NS(=O)(=O)c2ccc(C3CCCCC3)cc2)cc1	6.06%
Cc1ccc(CN2CCN(Cc3c[nH]c4ccccc34)CC2CCO)o1 (stereo not drawn)	-8.71%
COc1ccc(C(=O)NC(C)Cn2nc(C)cc2C)cc1OC1CCN(C(C)=O)CC1 (stereo not drawn)	-4.23%
COc1ccc(/C=C2\Cc3ccccc3C2=O)cc1OC	14.1%
COc1ccccc1OCC(O)COC(N)=O (stereo not drawn)	10.3%
CN1CCN(C(=O)CN(c2cc(C(F)(F)F)ccc2Cl)S(C)(=O)=O)CC1	15%
Fc1cccc(F)c1-c1nc2c(s1)CCc1onc(-c3ccc(Br)cc3)c1-2	23.2%
Cc1nn(Cc2ccccc2Cl)c(C)c1NC(=O)/C=C/c1cnn(C)c1	10.2%
Cn1c(NCc2ccc(Cl)cc2)nc2ccccc21	-49%
COc1ccc(C(=O)Nc2c(N)nc[nH]c2=O)cc1	0.0988%
COC(=O)C(C)Oc1ccc2c3c(c(=O)oc2c1)CCCCC3 (stereo not drawn)	-59.2%
Cc1ccc(C(=O)Nc2ccc(C)c(S(=O)(=O)N3CCOCC3)c2)c(C)c1	-51%
Cc1ccc(-c2nnc(SCC(=O)N/N=C/c3ccc(C)s3)n2-c2ccccc2)cc1	-9.42%
CCOC(=O)c1cc(-c2cccnc2)nn1-c1ccccc1	9.52%
O=C1CC(C(=O)N2CCc3ccccc32)CN1c1ccccc1 (stereo not drawn)	-6.98%
CCOc1ccc(NC(=O)CC2C(=O)N(c3ccc(OC)cc3)C(=O)N2CCc2cccs2)cc1 (stereo not drawn)	-36.1%
CCOC(=O)C1CCCN(S(=O)(=O)c2ccc(Br)c(OC)c2)C1 (stereo not drawn)	-14.3%

Compound	hERG current change (%, negative = inhibition) at 10uM
O=C(NCc1ccc(F)cc1)c1cc(-c2ccncc2)nc2ccccc12	-64.7%
CCN1CCN(S(=O)(=O)c2cccc3nsnc23)CC1	-5.57%
CC(C)C(=O)N1CCC(CN=CC2=C(O)CC(C)(C)CC2=O)CC1	11.1%
C/C(CC(=O)Nc1cccnc1)=N\NC(=O)C(=O)Nc1cccc(C)c1	-24.7%
O=C(NCc1cccs1)C1CCCN1C(=O)Nc1cccc(Cl)c1 (stereo not drawn)	2.92%
CCC(Cc1ccccc1)NC(=O)CCc1ccccc1 (stereo not drawn)	13.5%
CCNc1ccccc1C(=O)O	7.63%
CC(C)N(CCNC(=O)c1ccc(CS(=O)(=O)c2c(Cl)cccc2Cl)o1)Cc1ccccc1	-70.6%
Cc1nn(CC(=O)NCCCN2CCN(C)CC2)c(=O)c2cc(-c3ccccc3)nn12	0.586%
C/C=C/C=C\C(=O)Nc1cccc(C2=NOC3(C2)C[C@H](C(N)=O)N(C(=O)CC#N)C3)c1 (stereo partly drawn)	3.77%
COc1ccc(/C=C/C(=O)Nc2ccc3c(c2)CCC3)cc1OC	14.1%
CCOc1ccc(C(=O)NC(=S)NCCCN2CCOCC2)cc1	-50.1%
S=c1[nH]c2ccccc2c2ccccc12	21.1%
CN(C)CCNC(=O)c1ccccc1	1.62%
Cc1ccc(CNC(=O)C2CCN(S(=O)(=O)c3cccs3)CC2)cc1	13.2%
CCOc1ccc(Nc2cc(C)nc3c(C)cccc23)cc1	-45.6%
COC(=O)C1=C(O)/C(=C\c2ccc(OCC(=O)Nc3ccccc3)cc2)N=C1C	5.46%
COc1ccc(OC)c(CN2CCCC(C(=O)c3sccc3C)C2)c1 (stereo not drawn)	-63.9%
Cc1c(C(=O)OCC(=O)N(C)CC(=O)Nc2ccc(F)cc2)oc2ccccc12	14.3%
c1ccc(Cn2nnc3c(N4CCc5ccccc5C4)ncnc32)cc1	-21.5%
CCOC(=O)C(NC(C)=O)(Nc1ccc(S(=O)(=O)Nc2cc(C)nc(C)n2)cc1)C(F)(F)F (stereo not drawn)	9.88%
CSc1ccc(C(=O)C2CCCN(C(=O)CCc3cnn(C)c3)C2)cc1 (stereo not drawn)	-13.3%

Compound	hERG current change (%, negative = inhibition) at 10uM
O=C(NC(=S)Nc1c(Cl)ccc2nsnc12)c1ccco1	25.8%
CCC(C)NC(=O)CSc1nc2ccc(N3CCOCC3)cc2c(=O)n1CCc1ccccc1 (stereo not drawn)	3.14%
Cc1ccccc1OCc1nnc(SCC(=O)O)n1-c1cccc(Cl)c1	5.63%
CCCc1cc(=O)oc2cc(C)cc(OC(C)C(=O)NCC3CCC(C(=O)O)CC3)c12 (stereo not drawn)	6.11%
COc1cccc(S(=O)(=O)NCc2ccc(C(=O)NCC3CCCO3)cc2)c1 (stereo not drawn)	-5.79%
CC(=O)Nc1cccc(O)c1	21.7%
O=C(COc1ccc(S(=O)(=O)Nc2cccc(C(F)(F)F)c2)cc1)N1CCOCC1	2.47%
Cc1ccc(CN(C)C(=O)c2cc(COc3ccc(F)cc3Cl)on2)o1	-22.9%
N#C/C(=C/c1cn(-c2ccccc2)nc1-c1cccc(S(=O)(=O)N2CCOCC2)c1)C(=O)NCc1ccco1	-8.53%
C/C(=N\NC(=O)c1c([N+](=O)[O-])c(C)nn1C)c1ccc(NC(=O)c2ccc(C)o2)cc1	17%
CC#CCN1c2ccccc2[C@]23C[C@@H](C(=O)OC)N(C(=O)c4ccc(Br)cc4)C2=NC(C(=O)OC)=C(C(=O)OC)[C@H]13	6.76%
CCc1ccc(NC(=O)CSc2n[nH]c(C)c2[N+](=O)[O-])cc1	5.31%
O=C(N/N=C/c1ccc([N+](=O)[O-])o1)c1cc(-c2ccc(-c3ccccc3)cc2)nc2ccccc12	17.7%
COc1ccc(C(=O)N2CCCC(N3CCN(c4ccccc4F)CC3)C2)c(OC)n1 (stereo not drawn)	0.587%
Cc1ccc(Nc2nc3nonc3[nH]c2=O)cc1C	15.9%
CC(C)Nc1nnc(SCC(=O)Nc2sccc2C#N)s1	-10.3%
CCOP(=S)(OCC)SCOC(=O)NCC(=O)OC	13.1%
Cc1ccccc1-c1nc(CS(=O)(=O)CC(=O)NCc2ccco2)c(C)o1	-21.7%
CC(=O)Nc1ccc(-c2sc(Nc3cccc4ccccc34)n[n+]2-c2ccccc2)cc1.[Cl-]	-1.21%
O=c1[nH]c(=O)n(C2CCCCC2)c(O)c1C1NCCc2ccccc21 (stereo not drawn)	14.5%
CN(C)S(=O)(=O)c1ccc(C(=O)NCCc2ccco2)cc1	4.04%
